The results in this text go back to paper PMC10526831, “SUPPRESSOR OF MAX2 LIKE 6, 7, and 8 Interact with DDB1 BINDING WD REPEAT DOMAIN HYPERSENSITIVE TO ABA DEFICIENT 1 to Regulate the Drought Tolerance and Target SUCROSE NONFERMENTING 1 RELATED PROTEIN K”.

Assay [1] deals with T1, SUPPRESSOR OF MAX2-LIKE 6 fused to the GAL4 DNA binding domain (Arabidopsis thaliana) (UniProt Q9LML2).
T1 sequence: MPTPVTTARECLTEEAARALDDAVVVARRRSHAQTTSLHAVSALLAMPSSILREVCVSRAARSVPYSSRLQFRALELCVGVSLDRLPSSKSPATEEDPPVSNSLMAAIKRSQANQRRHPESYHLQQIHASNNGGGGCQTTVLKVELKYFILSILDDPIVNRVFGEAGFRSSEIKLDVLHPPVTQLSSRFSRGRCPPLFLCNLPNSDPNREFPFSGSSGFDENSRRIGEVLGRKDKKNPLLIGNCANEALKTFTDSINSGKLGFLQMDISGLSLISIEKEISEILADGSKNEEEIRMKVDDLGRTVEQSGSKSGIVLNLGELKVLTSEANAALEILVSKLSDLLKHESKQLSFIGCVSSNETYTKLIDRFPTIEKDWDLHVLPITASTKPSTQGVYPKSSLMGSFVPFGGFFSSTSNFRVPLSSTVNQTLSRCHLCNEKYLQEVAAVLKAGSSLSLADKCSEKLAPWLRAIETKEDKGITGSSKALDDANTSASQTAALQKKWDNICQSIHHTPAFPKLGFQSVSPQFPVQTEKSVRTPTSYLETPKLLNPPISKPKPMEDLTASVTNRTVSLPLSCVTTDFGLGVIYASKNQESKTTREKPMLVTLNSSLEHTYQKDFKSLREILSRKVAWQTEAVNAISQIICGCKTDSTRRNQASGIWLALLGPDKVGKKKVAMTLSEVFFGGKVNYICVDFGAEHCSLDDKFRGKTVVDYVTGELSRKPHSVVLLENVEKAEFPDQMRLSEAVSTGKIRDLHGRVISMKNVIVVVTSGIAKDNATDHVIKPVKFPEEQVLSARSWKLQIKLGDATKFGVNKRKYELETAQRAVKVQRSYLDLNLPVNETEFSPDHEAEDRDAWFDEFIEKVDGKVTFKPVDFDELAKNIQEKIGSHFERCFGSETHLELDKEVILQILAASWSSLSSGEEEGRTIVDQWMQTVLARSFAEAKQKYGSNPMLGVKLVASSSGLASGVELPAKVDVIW
The assay can be described thus: two-hybrid; bait and prey co-transformed into Y2H Gold; spotted on DDO (SD/-Leu/-Trp) or QDO (SD/-Ade/-His/-Leu/-Trp) with or without X-alpha-Gal/AbA; 30 °C, 3 days.

Assay [2] addresses T2, SUPPRESSOR OF MAX2-LIKE 7 fused to the GAL4 DNA binding domain (Arabidopsis thaliana) (UniProt O80875).
T2 sequence: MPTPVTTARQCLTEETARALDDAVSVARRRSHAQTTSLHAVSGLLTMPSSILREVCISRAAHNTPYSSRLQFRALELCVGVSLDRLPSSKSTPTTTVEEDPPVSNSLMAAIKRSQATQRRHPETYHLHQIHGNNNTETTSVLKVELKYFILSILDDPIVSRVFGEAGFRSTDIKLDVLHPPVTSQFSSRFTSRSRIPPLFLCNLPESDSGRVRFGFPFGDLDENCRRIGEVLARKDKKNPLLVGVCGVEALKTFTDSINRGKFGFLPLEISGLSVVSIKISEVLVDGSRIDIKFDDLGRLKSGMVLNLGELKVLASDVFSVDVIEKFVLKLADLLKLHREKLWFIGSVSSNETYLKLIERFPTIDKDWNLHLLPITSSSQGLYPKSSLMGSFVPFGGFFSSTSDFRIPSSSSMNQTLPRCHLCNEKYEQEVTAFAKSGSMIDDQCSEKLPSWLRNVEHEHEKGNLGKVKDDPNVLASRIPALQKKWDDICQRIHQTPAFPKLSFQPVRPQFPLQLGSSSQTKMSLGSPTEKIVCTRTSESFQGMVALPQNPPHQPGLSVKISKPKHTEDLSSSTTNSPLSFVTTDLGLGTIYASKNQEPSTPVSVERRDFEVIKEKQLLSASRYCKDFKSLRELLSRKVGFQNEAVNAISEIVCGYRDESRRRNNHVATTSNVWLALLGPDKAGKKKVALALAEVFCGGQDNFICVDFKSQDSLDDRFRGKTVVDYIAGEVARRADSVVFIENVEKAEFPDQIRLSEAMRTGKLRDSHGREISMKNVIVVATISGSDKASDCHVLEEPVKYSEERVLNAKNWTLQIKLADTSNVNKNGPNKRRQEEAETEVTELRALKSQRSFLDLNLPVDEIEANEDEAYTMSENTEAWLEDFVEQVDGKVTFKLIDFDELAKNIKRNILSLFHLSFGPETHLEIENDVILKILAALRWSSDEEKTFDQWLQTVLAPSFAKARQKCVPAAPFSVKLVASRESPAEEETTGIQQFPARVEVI
The assay is described as above.

The target in assay [3] is T3, SUPPRESSOR OF MAX2-LIKE 8 fused to the GAL4 DNA binding domain (Arabidopsis thaliana) (UniProt F4IGZ2).
T3 sequence: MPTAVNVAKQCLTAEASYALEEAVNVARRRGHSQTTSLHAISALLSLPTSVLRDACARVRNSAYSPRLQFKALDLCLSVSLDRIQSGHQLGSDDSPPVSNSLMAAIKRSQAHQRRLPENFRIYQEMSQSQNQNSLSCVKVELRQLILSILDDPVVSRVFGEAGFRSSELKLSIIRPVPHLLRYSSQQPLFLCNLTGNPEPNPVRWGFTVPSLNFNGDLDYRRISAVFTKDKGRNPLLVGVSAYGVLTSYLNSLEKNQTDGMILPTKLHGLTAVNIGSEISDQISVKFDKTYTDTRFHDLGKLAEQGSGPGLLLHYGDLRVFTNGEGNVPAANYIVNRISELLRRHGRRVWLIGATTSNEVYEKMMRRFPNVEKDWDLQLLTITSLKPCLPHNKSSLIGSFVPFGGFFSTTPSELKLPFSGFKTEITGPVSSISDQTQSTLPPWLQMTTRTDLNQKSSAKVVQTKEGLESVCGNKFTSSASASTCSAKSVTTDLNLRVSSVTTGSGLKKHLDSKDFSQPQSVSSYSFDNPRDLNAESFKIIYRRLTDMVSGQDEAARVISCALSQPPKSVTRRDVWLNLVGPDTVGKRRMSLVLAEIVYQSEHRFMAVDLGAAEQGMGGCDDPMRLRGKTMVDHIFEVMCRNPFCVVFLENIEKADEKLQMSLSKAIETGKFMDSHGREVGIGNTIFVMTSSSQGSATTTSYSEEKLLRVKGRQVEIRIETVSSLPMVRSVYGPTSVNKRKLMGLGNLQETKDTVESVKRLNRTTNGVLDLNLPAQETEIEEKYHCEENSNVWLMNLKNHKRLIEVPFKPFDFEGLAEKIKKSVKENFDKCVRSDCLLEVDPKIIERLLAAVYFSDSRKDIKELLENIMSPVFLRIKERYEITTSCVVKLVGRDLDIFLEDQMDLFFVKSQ
The assay is described as above.

Another assay has as its target T4, GST-SMXL7 (Arabidopsis thaliana, UniProt O80875 1-1002).
T4 sequence: T2 sequence
The assay can be described thus: pull-down; GST-SMXL6,7,8 supernatant bound to GSH beads as bait (PBS, 1% Triton X-100, 1 mM PMSF, 1% BSA, 4 h, 4 °C), washed; extract from cells producing His-DWA1 added as prey for 1 h; ten washes; anti-His and anti-GST immunoblot; the legend says purified proteins were used; only the target purified. For orientation: Immunoblotting shows a protein as a band on a membrane.

The target in a further assay is T5, GST-SMXL6 (Arabidopsis thaliana, UniProt Q9LML2 1-979).
T5 sequence: T1 sequence
Described as above.

Another assay deals with T6, GST-SMXL8 (Arabidopsis thaliana, UniProt F4IGZ2 1-910).
T6 sequence: T3 sequence
The assay is described as above.

These are yes or no findings as the source states them, for the method shown. For part of these data: In cells and extracts the contact can be indirect. Some entries that bind do so weakly or less than the wild type. Where a sequence is shown, tags or fusion partners need not be part of it.

B1: ABSCISIC ACID … 5 (yeast two-hybrid fusion) (protein, UniProt Q9SJN0 1-442)
chain: MVTRETKLTSEREVESSMAQARHNGGGGGENHPFTSLGRQSSIYSLTLDEFQHALCENGKNFGSMNMDEFLVSIWNAEENNNNQQQAAAAAGSHSVPANHNGFNNNNNNGGEGGVGVFSGGSRGNEDANNKRGIANESSLPRQGSLTLPAPLCRKTVDEVWSEIHRGGGSGNGGDSNGRSSSSNGQNNAQNGGETAARQPTFGEMTLEDFLVKAGVVREHPTNPKPNPNPNQNQNPSSVIPAAAQQQLYGVFQGTGDPSFPGQAMGVGDPSGYAKRTGGGGYQQAPPVQAGVCYGGGVGFGAGGQQMGMVGPLSPVSSDGLGHGQVDNIGGQYGVDMGGLRGRKRVVDGPVEKVVERRQRRMIKNRESAARSRARKQAYTVELEAELNQLKEENAQLKHALAELERKRKQQYFESLKSRAQPKLPKSNGRLRTLMRNPSCPL
Turning to B1, the binding result in assay [1], in assay [2] and in assay [3] was “no binding” throughout.

B2: DDB1-BINDING WD-REPEAT DOMAIN (DWD) … TO ABA … 1 (ABA1) (DWA1) fused to the GAL4 activation domain (protein, UniProt Q8L4M1 1-367)
chain: MYGDATNWNEDEYRESILKEREIETRTVFRTAWAPPARISNPDAFVVASSDGTLAFHSLNSLVSQSASFGYSKGQDVMVAEPERVVRAHEGPAYDVKFYGEDEDALLLSCGDDGRVRGWKWREFAESDVSLHLKENHLKPLLELINPQHKGPWGALSPMPEINAMSVDPQSGSVFTAAGDSCAYCWDVESGKIKMTFKGHSDYLHTVVSRSSASQILTGSEDGTARIWDCKTGKCVKVIGSQDKKSRLRVSSMALDGSESWLVCGQGKNLALWNLPASECVQTIPIPAHVQDVMFDEKQILTVGAEPLLRRFDLNGALLSQIHCAPCSVFSISLHPAGVVAVGGYGGIVDVISQFGSHLCTFRSSSL
Consider B2, for which the binding entry in assay [1], in assay [2] and in assay [3] was “binds” each time.

B3: His-DWA1 (protein, UniProt Q8L4M1 1-367)
chain: B2 chain
B3: the binding entry with GST-SMXL7, in the assay with GST-SMXL6 and with GST-SMXL8 was “binds” each time.

B4: DWA2 (yeast two-hybrid fusion) (protein, UniProt Q6NPN9 1-350)
chain: MQGGSSGIGYGLKYQARCISDVKADRDHTSFLTGTLSLKEENEVHLLRLSSGGSELLCEGLFSHPNEIWDLASSPFDQRIFSTVFSTGDSYGAAIWQIPEPYGQSNSSTLECVASLDAHVGKINCVLWCPSGNSDKLISMDEQNLVFWSLDSSKKSAEVLSKESAGMRHSLSGGAWNPHDVNSVAATSESSIQFWDLRTMKKNNSIERAHVRNVDYNLKREHILVSADDESGIHLWDLRKTKFPVQELPGHTHWTWAVRCNPEYEELILSVGTDSAVNLWFASASSEHKTSESPVEASRQRVNPLLNSYTDYEDSVYGLAWSSREPWIFASLSYDGRVVIESVKPFLPRR
Regarding B4, the binding result in assay [1], in assay [2] and in assay [3] was “no binding” each time.
